Drawing on PubChem BioAssay AID1745853 (National Center for Advancing Translational Sciences (NCATS), 2022), this text covers activity change, negative = inhibition for 29 compounds.

Some of the results follow. Shown are side measurements of this screen, not its main read-out; they come without a call.

Common to all, as to assay: Primary Screen for Target Class Profiling of Small Molecule Inhibitors of Methyltransferases
The target of test [1] is Glycine N-methyltransferase (Homo sapiens) (UniProt Q14749). To be noted: purified enzyme, MTase-Glo SAH luminescence; measured here: GNMT inhibition; at 40 µM; stronger effect = lower value. An outline of the steps: (§1)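 Each enzyme was reacted with SAM and its substrate, with compounds tested once at 40 uM; SAH formed was read by MTase-Glo luminescence.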
Test [2] deals with Guanidinoacetate N-methyltransferase (Homo sapiens) (UniProt Q14353). As to conditions: purified enzyme, MTase-Glo SAH luminescence; measured here: GAMT inhibition; at 40 µM; stronger effect = lower value. An outline of the steps: as §1
The target of test [3] is Histamine N-methyltransferase (Homo sapiens) (UniProt P50135). To be noted: purified enzyme, MTase-Glo SAH luminescence; measured here: HNMT inhibition; at 40 µM; stronger effect = lower value. An outline of the steps:
as §1

The target in test [4] is Nicotinamide N-methyltransferase (Homo sapiens) (UniProt P40261). To be noted: purified enzyme, MTase-Glo SAH luminescence; measured here: NNMT inhibition; at 40 µM; stronger effect = lower value. An outline of the steps: as §1
Test [5] concerns the target Phenylethanolamine N-methyltransferase (Homo sapiens) (UniProt P11086). As to conditions: purified enzyme, MTase-Glo SAH luminescence; measured here: PNMT inhibition; at 40 µM; stronger effect = lower value. An outline of the steps: as §1
% is set by controls: 0 for no effect and ±100 for the full control effect.

For `CCOC(=O)C1CCCN(C(=O)C2CC(c3ccc(CC)cc3)CN(C(C)=O)C2)C1` (configuration not stated), the activity change, negative = inhibition in test [1] was -5.45%; in test [2], 0.813%; in test [3], 1.35%; in test [4], -3.55%; in test [5] it was 0.573%.

In the case of `CC[C@H]1CN(S(=O)(=O)c2ccc(OC)cc2)CC[C@H]1CC(=O)NCc1cccnc1`, the activity change, negative = inhibition in test [1] was -4.51%; in test [2] it was -1.92%; in test [3] it was -1.08%; in test [4], 3.62%; in test [5], -1.74%.

On to `Cc1cccc(-c2[nH]c(Cc3cccc(C(N)=O)c3)nc2-c2ccc3nccnc3c2)n1`, for which the activity change, negative = inhibition in test [1] is -1.02%; in test [2], -3.54%; in test [3], 4.91%; in test [4], -34.5%; in test [5], 0.929%.

In the case of `COc1ccc(-c2cc3n(n2)CC(C)(C(=O)NCc2ccccc2OC)N(Cc2ccccc2)C3=O)cc1` (configuration not stated), the activity change, negative = inhibition in test [1] turned out to be 5.11%; in test [2], 0%; in test [3] it was 5.67%; in test [4], 7.13%; in test [5], 2.12%.

For the compound `O=c1oc(Cl)c(Cl)c2ccccc12`, the activity change, negative = inhibition is -5.05% in test [1]; 8.31% in test [2]; 3.85% in test [3]; -4.67% in test [4]; 5.27% in test [5].

Regarding `CC(C)c1ccc(CNC(=O)c2ccc3c(=O)nc4c(-c5ccccc5)n[nH]n4c3c2)cc1`, the activity change, negative = inhibition in test [1] is -3.54%; in test [2] it was 0.569%; in test [3], -6.56%; in test [4] it was -2.99%; in test [5], -1.2%.

In the case of `COc1ccc(-c2n[nH]n3c2nc(=O)c2ccc(C(=O)NC4CC4)cc23)cc1`, the activity change, negative = inhibition in test [1] was -1.49%; in test [2], 3.92%; in test [3] it was 4.56%; in test [4] it was 3.58%; in test [5], -0.884%.

On to `Cc1ccc(N2CCN(C(=O)c3noc(-c4ccc[nH]c4=O)n3)CC2)cc1`, for which the activity change, negative = inhibition in test [1] was -9.51%; in test [2] it was -2.8%; in test [3], 0.793%; in test [4], -5.2%; in test [5], 0.012%.

On to `O=C(Nc1cccc(Cl)c1)[C@@H]1C[C@H](c2ccc(F)cc2)N([S+](=O)([O-])C2CC2)C1`, for which the activity change, negative = inhibition in test [1] is -12.2%; in test [2] it was -0.575%; in test [3], -3.48%; in test [4], -7.05%; in test [5], -1.42%.

For the compound `O=C(/C=C/c1ccc(O)cc1)OC[C@H]1O[C@@H](O/C(=C\c2ccccc2)C(=O)O)[C@H](O)[C@@H](O)[C@@H]1O`, the activity change, negative = inhibition in test [1] is 2.29%; in test [2] it was 7.7%; in test [3] it was 6.98%; in test [4] it was -5.81%; in test [5] it was 7.1%.

Consider `COc1ccc(F)cc1S(=O)(=O)N1C[C@@H](C(N)=O)[C@H](C2CCN(C)CC2)C1`, for which the activity change, negative = inhibition in test [1] was -1.02%; in test [2], -4.29%; in test [3], -5.51%; in test [4], -10.6%; in test [5], 1.34%.

Turning to `CCC(C)NC(=O)c1ccc2c(=O)n(C)c3nn(Cc4ccc(N5CCCC5=O)cc4)c(=O)n3c2c1` (configuration not stated), the activity change, negative = inhibition in test [1] was found to be 4.35%; in test [2] it was 0.412%; in test [3], 1.96%; in test [4], 2.56%; in test [5], 6.57%.

With `CC(C)CCNC(=O)C1(C)Cn2c(ccc2-c2ccco2)C(=O)N1Cc1ccc(Cl)cc1` (configuration not stated), the activity change, negative = inhibition was -3.46% in test [1]; 0% in test [2]; 7% in test [3]; -2.46% in test [4]; 1.61% in test [5].

Regarding `CN(C)CC(=O)N1CCn2c3c(c4cc(C5CCCCC5)ccc42)CCCC31` (configuration not stated), the activity change, negative = inhibition in test [1] was -15.1%; in test [2], 0.619%; in test [3], -20.1%; in test [4], 9.7%; in test [5] it was 0.753%.

As to `Cc1nnc(C(C)C)n1C1CC2CCC(C1)N2CCC(NC(=O)C1CCC(F)(F)CC1)c1ccccc1` (configuration not stated), the activity change, negative = inhibition in test [1] came out at 5.35%; in test [3], 14.5%.

Regarding `CCC(C)/C=C(C)/C=C/C(=O)C1CCC(O)C(C)(O)C1=O` (configuration not stated), the activity change, negative = inhibition is 4.34% in test [1]; 8.34% in test [2]; 5.38% in test [3]; -7.25% in test [4]; 4.93% in test [5].

In the case of `O=C(C1=CCN2c3c(cccc31)OC[C@H]2CN1CCOCC1)c1cccc2ccccc12`, the activity change, negative = inhibition in test [1] was -1.31%; in test [2], -10.9%; in test [3], 5.2%; in test [4] it was -31.4%; in test [5] it was 0.374%.

`CC(C)C(NC(=O)c1ccc2ccccc2n1)C(=O)NC(CC(=O)O)C(=O)COc1c(F)cccc1F` (configuration not stated): the activity change, negative = inhibition in test [1] was 3.74%; in test [2], 1.37%; in test [3], 13.1%; in test [4], -6.14%; in test [5], 6.86%.

On to `O=C(c1ccc(F)cc1)N1CCC(N2CCCCCC2=O)CC1`, for which the activity change, negative = inhibition in test [1] was -5.55%; in test [2] it was -6.54%; in test [3] it was -3.73%; in test [4], -9.96%; in test [5], -5.16%.

On to `COc1ccc(N2CC3CCC(C2)N3Cc2cccc(Cl)c2)cc1`, for which the activity change, negative = inhibition in test [1] is -3%; in test [2] it was 0.32%; in test [3] it was -7.33%; in test [4], 2%; in test [5], -0.833%.

Turning to `CCCN1C(=O)c2cc(C(=O)NCc3ccccc3Cl)nn2CC1(C)C(=O)NC1CCCC1` (configuration not stated), the activity change, negative = inhibition in test [1] is 0.154%; in test [2], 5.74%; in test [3], -10.8%; in test [4], 1.48%; in test [5] it was -3.25%.

Take `C[C@H]1CC[C@H]2[C@@H](C=C[C@@](C)(O)[C@]2(C)C(=O)CCO)C1`: the activity change, negative = inhibition was 1.31% in test [1]; 10% in test [2]; 7.59% in test [3]; -6.27% in test [4]; 1.55% in test [5].

`CCN1CCN(CCNC(=O)CCn2ccc3cc(S(=O)(=O)N4CCCCC4)ccc32)CC1`: the activity change, negative = inhibition in test [1] is 2.08%; in test [2] it was 3.12%; in test [3], -6.54%; in test [4] it was -1.08%; in test [5], -1.25%.

Take `O[C@@H]1CC(CNCc2ccc(F)cc2)(COc2cccnc2)C[C@@H]1O` (some centres not stated): the activity change, negative = inhibition in test [1] was -4.37%; in test [2], -2.92%; in test [3] it was -3.05%; in test [4], -0.98%; in test [5], 18.5%.

For `O=S(=O)(N[C@H]1[C@H](O)[C@H](O)C[C@@H]1c1cncnc1)c1ccc(Cl)cc1`, the activity change, negative = inhibition is -7.82% in test [1]; -8.45% in test [2]; -4.99% in test [3]; -13.7% in test [4]; -15.2% in test [5].

`CN(C(=O)C1(N)CC1)C1CCCN(CCCc2ccccc2)C1` (configuration not stated): the activity change, negative = inhibition in test [1] is -6.58%; in test [2], -8.48%; in test [3], -3.23%; in test [4], -10.5%; in test [5] it was -11.4%.

As to `Fc1ccccc1-c1nc2ccn(Cc3ccc(-c4ccc(C(F)(F)F)cc4C(F)(F)F)nn3)cc-2n1`, the activity change, negative = inhibition in test [1] was 1.32%; in test [2], 9.37%; in test [3], 9.71%; in test [4], -20.4%; in test [5], -0.341%.

In the case of `COc1cccc(CNC(=O)c2cc3n(n2)CC(C)(C(=O)NC2CCCCCC2)N(C)C3=O)c1OC` (configuration not stated), the activity change, negative = inhibition in test [1] is 2.77%; in test [2] it was 3.25%; in test [3] it was -2.26%; in test [4], 2.37%; in test [5] it was -1.35%.

As to `C[C@@H]1O[C@@H](OC[C@H]2O[C@@H](OC(CCCCc3ccc(O)cc3)CCc3ccc(O)cc3)[C@H](O)[C@@H](O)[C@@H]2O)[C@H](O)[C@H](O)[C@H]1O` (some centres not stated), the activity change, negative = inhibition in test [1] is -0.666%; in test [2] it was -8.62%; in test [3], 0.594%; in test [4], -16.6%; in test [5], -0.281%.
